# Laboratory results taken from PMC6212790.
# The other results are listed elsewhere or left out. At the low end of the ranking, values are background and their order means little.
# Biological target: T1, GST-Rok (full length) (UniProt O34857)
# T1 sequence: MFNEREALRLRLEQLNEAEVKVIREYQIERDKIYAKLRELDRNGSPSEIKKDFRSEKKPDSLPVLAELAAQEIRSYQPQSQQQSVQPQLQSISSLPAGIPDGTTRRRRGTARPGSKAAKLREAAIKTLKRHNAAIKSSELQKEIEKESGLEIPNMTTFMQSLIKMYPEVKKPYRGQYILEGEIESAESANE
# Test: protein binding microarray;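 also: rank score from −0.5 (least bound) to 0.5 (best bound)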
# Conditions: Rok is a gene silencer of Bacillus subtilis; high values mean tight binding; most listed sequences are background and not binding sites; double strand, one strand shown
row,Sequence,binding signal [E-score]
1,CCGACAGA,0.0273
2,GTAGGTGA,0.125
3,ATTATCAC,0.192
4,CTTTGACA,0.0623
5,GTGCGTGA,-0.0424
6,AAGTAAAC,0.123
7,AGTTCTGG,0.103
8,CGAAAGTA,0.27
9,CATCTCGA,-0.263
10,GACAAGAA,-0.281
11,GCTCACTA,0.112
12,CAAAAGCC,-0.0574
13,GACTGCAC,-0.115
14,AAAAGAGG,-0.151
15,AGGCCACG,-0.142
16,CCAATAAG,0.0378
17,AGAAAGCG,-0.0647
18,ACAATGAT,0.178
19,GTTGACGA,-0.129
20,ACATATCT,0.155
21,AAACCGTA,0.0268
22,CATTCCCG,-0.0164

row,Sequence,binding signal [E-score]
1,AAGCGGCC,-0.263
2,CGCAAACA,-0.121
3,TCATTAGA,0.101
4,CGCAGAGC,-0.187
5,ACCTTCCT,-0.19
6,ATCTTAGG,-0.0663
7,CGTCGGAC,-0.15
8,AGGGTTAC,-0.233
9,ATCCTCGA,-0.154
10,AGTTCACG,0.141
11,GAAGCACC,-0.296
12,ACGTAGAC,0.0692
13,ATAGGAGC,-0.0454
14,CGATAGGA,-0.0285
15,AGGCGAAT,0.0368
16,CACATTGG,0.0247
17,AGTTGAAG,0.171
18,GATGAGTA,0.194
19,ACGACGGG,-0.308
20,AATTACAC,0.291
21,ACAGTTCG,0.0489
22,CTAATTAC,0.329

row,Sequence,binding signal [E-score]
1,GCCAACCC,-0.21
2,AAATGGGC,-0.113
3,AAAGACCA,-0.1
4,CGCAAGGC,-0.368
5,GAGATTAC,0.224
6,CCACTTAA,-0.00978
7,GACCGGCC,-0.281
8,AAAGACGG,0.129
9,AGCGTCCA,0.0504
10,CAGTGCTA,-0.105
11,AAACACCT,0.0232
12,GTGGAGAA,0.0755
13,ATTTCTGA,0.107
14,GTATACCA,0.311
15,CGTTTCCA,-0.0727
16,TCCTTCGA,-0.154
17,CTACTATC,0.323
18,CTTTTTCA,-0.00538
19,AAGCCGTA,0.111
20,GGAACTTA,-0.0263
21,AGATATCT,0.399
22,GAGCCAGC,-0.261

row,Sequence,binding signal [E-score]
1,ACTTTTCT,0.136
2,CACATAAC,0.131
3,GAGTGTAC,-0.0692
4,ACAATTTG,0.0563
5,TACAATAA,0.169
6,CTTCTTTC,0.0125
7,AGAACACG,0.07
8,CACATGTC,-0.187
9,TGACAACA,0.0107
10,ACACACAG,0.143
11,AAATTAAT,0.286
12,GGGTCTTA,-0.128
13,ATTAGGTG,0.129
14,ACAGTCAG,-0.00727
15,CGCGCTCA,-0.141
16,GTTGCAAC,0.244
17,AACGCAAT,0.239
18,CAAATCTC,0.0513
19,ATTTATTC,0.219
20,ATATTCCC,0.15
21,AGAAGGAT,-0.0393
22,CGGTGTGA,-0.0243

row,Sequence,binding signal [E-score]
1,AGAGATTG,0.109
2,GCTTACAA,-0.219
3,ACCGGGAG,-0.262
4,ATTAAGGG,-0.1
5,TCGACAGA,-0.126
6,ACCGGACC,-0.0925
7,CGGCCGAC,-0.231
8,GTCGCCAC,-0.214
9,GTTTTGCA,0.0681
10,CCTGCTCA,-0.255
11,AGAGGATG,-0.0517
12,CATATGCC,-0.00343
13,ATTGTCCC,-0.301
14,ACACTAAT,0.316
15,CGGTTACG,-0.0301
16,CGACCGAC,-0.259
17,CCAGCTTC,-0.249
18,GTGTTGGA,0.0672
19,AATGCCTA,-0.0482
20,GCAGCCAA,-0.136
21,ATTAGTTA,0.311
